Sequences with one replicate were seen in a single cluster, so their values are uncertain.

The data set concerns ATP. As to the kind of experiment: switch fluorescence ratio, 500 uM ATP over buffer (Cy3 cluster intensity, sum of 5 cycles each) (fold (ratio)); higher = stronger signal-on switching upon ATP binding; sequences stand for … in TCGTCGGCAGCGTCAGATGTGTATAAGAGACAGTTTTTTTTTTTTTTTTTTTTTTTTT…TC. Conditions: aptamer strand: ATP DNA aptamer (quencher-CACCTGGGGGAGTATTGCGGAGGAAGG + anchor), 100 nM annealed; ATP concentration: 500 uM; one replicate. The procedure, abridged: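 For every switch-domain sequence, the fluorescence ratio is the mean of per-cluster values, each being summed target-cycle Cy3 intensity over summed buffer-cycle Cy3 intensity. Clusters outside 100-1000 RFU were excluded. On a modified Illumina MiSeq flow-cell, the Cy3-labelled switching-strand clusters were annealed to 100 nM quencher-labelled ATP aptamer, imaged in selection buffer and then after 15 min with 500 uM ATP at 22 °C. Five such cycles were run, with NaOH stripping and re-annealing between them.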
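Further: ATP exposure 15 min at 22 °C before imaging.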

Consider AGTGTGGGG, for which the switch fluorescence ratio was found to be 1.05.

Turning to ATCTCGGTG, the switch fluorescence ratio was determined as 0.992.

Turning to GTCTGGGGAC, the switch fluorescence ratio worked out at 0.976.

With CGGTACTAGT, the switch fluorescence ratio worked out at 0.932.

Consider GAGGATGTGG, for which the switch fluorescence ratio is 1.02.

Regarding TCATACGTGG, the switch fluorescence ratio was found to be 1.03.

With ACGTATTCCT, the switch fluorescence ratio amounted to 1.16.

On to TAATATGC, for which the switch fluorescence ratio was determined as 0.967.

Turning to GACATAGCCA, the switch fluorescence ratio turned out to be 1.1.

With AAATGTTGAA, the switch fluorescence ratio is 0.957.

For ACATATCATA, the switch fluorescence ratio was 1.07.

In the case of TACTTCTGCC, the switch fluorescence ratio stood at 0.996.

With CATTATTTCT, the switch fluorescence ratio stood at 0.987.

GCGTTGTGCG: the switch fluorescence ratio is 0.957.

On to AACTCCACCT, for which the switch fluorescence ratio amounted to 1.3.

For AGGGATTCGG, the switch fluorescence ratio stood at 0.985.

AGTTCCATA: the switch fluorescence ratio was 1.02.

Turning to GCTACTCGAC, the switch fluorescence ratio is 1.39.

With TAGTGTTTGA, the switch fluorescence ratio was determined as 1.

In the case of GCGCGAGTAC, the switch fluorescence ratio worked out at 1.89.

With GCACAAATAT, the switch fluorescence ratio is 1.

Take GCATTGGATT: the switch fluorescence ratio was 1.02.

Consider AAGACCCAGT, for which the switch fluorescence ratio was determined as 0.97.

TAAAATCTAT: the switch fluorescence ratio amounted to 0.985.

Turning to AACGCGGATG, the switch fluorescence ratio was found to be 1.

With GCCTAAACGG, the switch fluorescence ratio is 1.04.

For TGTAGGCCT, the switch fluorescence ratio was 0.973.

With AATATTTGCA, the switch fluorescence ratio came to 0.994.

Regarding AAGCCGAGGT, the switch fluorescence ratio was found to be 1.01.

For the sequence AAGTTGTCG, the switch fluorescence ratio came to 1.07.

For TGACTAGTCA, the switch fluorescence ratio turned out to be 1.

With CTTTAAGCTA, the switch fluorescence ratio turned out to be 1.12.

Take TCCACTAGAC: the switch fluorescence ratio was 2.4.

As for AACGGGCCT, the switch fluorescence ratio is 0.988.

As for GATTCGTATA, the switch fluorescence ratio was found to be 0.991.

ACATTAGCGG: the switch fluorescence ratio was determined as 1.02.

TACATACTTG: the switch fluorescence ratio is 1.2.

As for CGGGGCCAAG, the switch fluorescence ratio is 1.

Take GACTTGGCGC: the switch fluorescence ratio is 1.01.

As to GCAAACGGTA, the switch fluorescence ratio was 1.06.

CCCTTTAAAG: the switch fluorescence ratio was found to be 1.03.

AACATCGTCC: the switch fluorescence ratio was found to be 1.12.

For GCGGTTGTTA, the switch fluorescence ratio worked out at 1.01.

Regarding TGACGTCCTG, the switch fluorescence ratio was found to be 1.06.

Regarding TATATGGTAC, the switch fluorescence ratio worked out at 1.07.

As to TAGGCACCCG, the switch fluorescence ratio is 0.988.

Regarding GGGTAAGGAG, the switch fluorescence ratio amounted to 1.04.

Consider GCTAAAGGGC, for which the switch fluorescence ratio turned out to be 0.992.

Take CCACATGCCA: the switch fluorescence ratio was determined as 1.04.

As for TCGTATGGCT, the switch fluorescence ratio was found to be 0.995.

Take TCCGGCAGAT: the switch fluorescence ratio was 1.3.

Consider GCGACTTAGA, for which the switch fluorescence ratio worked out at 0.995.

As for ATGTACAAGT, the switch fluorescence ratio was 1.05.

Take GTCGTAGTGG: the switch fluorescence ratio amounted to 0.985.

Take CATATACTTG: the switch fluorescence ratio was determined as 1.05.

In the case of CGATGTCATA, the switch fluorescence ratio amounted to 1.

As for GGGGGAGCCA, the switch fluorescence ratio is 1.02.

As to CTAGGCGTAT, the switch fluorescence ratio was 0.945.

Regarding AATTCTGCCT, the switch fluorescence ratio worked out at 1.01.

Regarding CTATTAGACG, the switch fluorescence ratio was 1.04.

For ATCGAGGGTG, the switch fluorescence ratio was found to be 1.02.

CGGCAGCAC: the switch fluorescence ratio worked out at 4.7.

Regarding GGGTTACGTT, the switch fluorescence ratio amounted to 1.

As to AAGTATTATG, the switch fluorescence ratio was 0.995.

As for AACTCTACAA, the switch fluorescence ratio was determined as 1.23.

With CGATATCCTT, the switch fluorescence ratio came out at 1.03.

Take CGCCCGTCCT: the switch fluorescence ratio was 0.989.

For the sequence CTACGGGGCA, the switch fluorescence ratio came to 0.986.

TGATTTGATG: the switch fluorescence ratio was found to be 0.979.

On to CAGGATTATG, for which the switch fluorescence ratio was found to be 1.04.

For CGTGCAAGCA, the switch fluorescence ratio is 1.04.

As for TTCGCTGTGG, the switch fluorescence ratio was found to be 0.991.

Regarding GACGCCAGAG, the switch fluorescence ratio was 1.14.

As for TCTCGCGGGT, the switch fluorescence ratio was 1.01.

As to GTGACTCGGG, the switch fluorescence ratio is 1.02.

For the sequence GGATTCGCAC, the switch fluorescence ratio stood at 1.6.

On to CATTGATGTA, for which the switch fluorescence ratio amounted to 1.02.

As for AGTCCCTAGC, the switch fluorescence ratio was determined as 1.01.

Regarding ACCTAGTTGT, the switch fluorescence ratio stood at 1.06.

Take TTATGTTGCG: the switch fluorescence ratio was found to be 1.01.

AAACTCGTGG: the switch fluorescence ratio amounted to 0.976.

Turning to CGATATCTTC, the switch fluorescence ratio was 1.01.

For the sequence CTGAAGATCG, the switch fluorescence ratio stood at 1.03.

Consider GGACATGAGC, for which the switch fluorescence ratio was 0.983.

Regarding TGTGGTATGA, the switch fluorescence ratio came to 1.01.

As for CAAACCTTCT, the switch fluorescence ratio turned out to be 1.48.

Turning to TAGATGTCAA, the switch fluorescence ratio was found to be 0.973.

With TGCATCGATC, the switch fluorescence ratio was 1.

GAAAGTTTCA: the switch fluorescence ratio is 1.01.

Regarding GCAACATCAT, the switch fluorescence ratio was 1.03.

In the case of ATCTAGACCG, the switch fluorescence ratio came out at 0.985.

For the sequence TTCGATAAAA, the switch fluorescence ratio came to 0.999.

Turning to TTGGCCTCAT, the switch fluorescence ratio is 0.968.

TTTGCCCTG: the switch fluorescence ratio turned out to be 1.03.

As for TCCCGGTATT, the switch fluorescence ratio is 0.984.

For the sequence AACTCACGGC, the switch fluorescence ratio was found to be 1.34.

CCGGGGGCAC: the switch fluorescence ratio worked out at 1.61.

AGTCAGTCCT: the switch fluorescence ratio was found to be 0.984.

With GCAGAGCCGG, the switch fluorescence ratio is 1.03.

Turning to GGCGTGATAT, the switch fluorescence ratio was determined as 1.

Turning to GTCCTTAGGA, the switch fluorescence ratio was determined as 0.95.

Take TCGCACGAGC: the switch fluorescence ratio came out at 1.26.

Turning to GTGCCAAGCG, the switch fluorescence ratio is 0.991.

As for ACGAACTTA, the switch fluorescence ratio was found to be 1.31.

With CAGATTTGTA, the switch fluorescence ratio was found to be 1.02.

Take TTGAGGGCAA: the switch fluorescence ratio was determined as 1.38.

For the sequence TTCCTGCCGT, the switch fluorescence ratio is 1.07.

Turning to CATCCCGGGA, the switch fluorescence ratio was 1.26.

For TTGTATAGAT, the switch fluorescence ratio came to 1.

Consider GAGGGTAAGG, for which the switch fluorescence ratio was found to be 0.94.

Turning to ATAGCCCTCT, the switch fluorescence ratio came out at 0.966.

For the sequence CTTCGTGTGG, the switch fluorescence ratio is 1.02.

Consider GCCTATTCTG, for which the switch fluorescence ratio is 0.918.

Turning to ATATGTTATC, the switch fluorescence ratio amounted to 1.06.

For the sequence CACGAGTATT, the switch fluorescence ratio amounted to 1.04.

Consider CAATTAAGAG, for which the switch fluorescence ratio worked out at 0.995.

On to GTCCAGTCCG, for which the switch fluorescence ratio amounted to 0.971.

For GATGTGATGC, the switch fluorescence ratio is 1.64.

Consider GGAGGCGCAA, for which the switch fluorescence ratio was determined as 4.8.

For TACGTGCCTG, the switch fluorescence ratio was 0.972.

The values are drawn from the supplement of paper PMC10126150.
